Measured values published in ChEMBL document CHEMBL1201862, “PubChem BioAssay data set” (2004).

Test system: NCI-H322M
Test: inhibition of tumour cell growth, NCI panel, 48 h

| SMILES | GI50 |
| --- | --- |
| O=C(O)c1cc(-c2ccc3c(O)c(O)ccc3c2)ccc1O | inactive: > 75 µM |
| C1=c2ccccc2=C2C(=C(c3ccccc3)C(c3ccccc3)=NN2c2ccccc2)S1 | inactive: > 100 µM |
| CCOC(=O)C(NC(=O)c1ccccc1)(Nc1cc(C)on1)C(F)(F)F (stereo unspecified) | inactive: > 100 µM |
| Cc1ccc(NC(=O)c2ccccc2C(=O)O)cc1C | inactive: > 100 µM |
| N#C/C(=C\c1cc(O)c(O)c(O)c1)C(N)=O | inactive: > 79.1 µM |
| Oc1cc(-c2ccccn2)nc2cccc(F)c12 | inactive: > 100 µM |
| O=C1NC(=S)N/C1=C\c1cccs1 | inactive: > 100 µM |
| CC(C)(C)SC1=CCC[C@@H](P(=O)(c2ccccc2)c2ccccc2)[C@@H]2CCC[C@@H]12 | inactive: 17.2 µM |
| O=C1CC(NC2CC(=O)c3c(Br)sc(Br)c32)c2c(Br)sc(Br)c21 (stereo unspecified) | inactive: 13.3 µM |
| COc1cc(C2SCC(=O)N2c2ccc(Cl)cc2)cc(I)c1O (stereo unspecified) | inactive: 45.1 µM |
| CC1=CC(=O)CC(C)(C)C1/C=C/C(C)=C/C=C/C(C)=C/C=C/C=C(C)/C=C/C=C(C)/C=C/C1C(C)=CC(=O)CC1(C)C (stereo unspecified) | inactive: > 100 µM |
| O=C1C=CC2(CCCCCCC2=O)CC1 (stereo unspecified) | inactive: > 100 µM |
| O=C(c1ccccc1)c1nnn(Cc2ccccc2Cn2nnc(C(=O)c3ccccc3)c2C(=O)c2ccccc2)c1C(=O)c1ccccc1 | inactive: > 100 µM |
| CN1CCN(CCSC2Cc3cc(Cl)ccc3Sc3ccccc32)CC1 (stereo unspecified) | inactive: 11 µM |
| O=S(=O)(O)C(c1ccccc1)C(O)c1ccccc1 (stereo unspecified) | inactive: > 100 µM |
| CC1(C)C2CCC(N)(C2)C1N (stereo unspecified) | inactive: > 100 µM |
| C/C=C\C1OC1(C)c1cc(=O)c2c(C)cc3c(c2o1)C(=O)c1c(O)c(C2CC(C)(N(C)C)C(OC(C)=O)C(C)O2)cc(C2CC(N(C)C)C(O)C(C)O2)c1C3=O (stereo unspecified) | active: 0.00629 µM |
| CC12CCC(C(=O)n3c1nc1ccccc13)C(C)(C)O2 (stereo unspecified) | inactive: > 100 µM |
| O=C1C=C(N2CCN(CCOCCO)CC2)C(=O)c2c(O)ccc(O)c21 | inactive: 3.78 µM |
| CC1(C)CC(=O)C(CC2C(=O)CCCC2=O)C(=O)C1 | inactive: > 100 µM |
| Cc1nc2ccc(F)cc2c(Cl)c1CCCl | inactive: 73.3 µM |
| CC(C)(C)C(=O)c1c(O)c2ccccc2c2ccccc2c1=O | inactive: > 100 µM |
| COc1cc(C2SC(C)C(=O)N2c2ccc(-c3csc(NS(=O)(=O)c4ccc(Cl)c(OC)c4)n3)cc2)ccc1O (stereo unspecified) | inactive: > 100 µM |

| SMILES | GI50 |
| --- | --- |
| C(=N\NC1=NCCCN1)/c1ccc(-c2cn3cc(/C=N/NC4=NCCCN4)ccc3n2)cc1 | inactive: > 100 µM |
| O=c1[nH]c(Br)nc2c(Br)c[nH]c12 | inactive: > 100 µM |
| Cc1ccc(NC(=O)/C(Cl)=C(/Cl)C(=O)O)cc1 | inactive: 41.7 µM |
| COc1ccc2nc(NC(=O)C(=O)CC(=O)c3ccc([N+](=O)[O-])cc3)sc2c1 | inactive: > 100 µM |
| CC(=O)Nc1ccc(-c2nnc(SCC(=O)Nc3ccc(Cl)cc3Cl)o2)cc1 | inactive: 54.6 µM |
| O=C(/C=C/c1ccc(-c2ccccc2)cc1)NCc1ccc(C(=O)NCc2ccccc2)cc1 | inactive: > 100 µM |
| O=C(NCP(=O)(Oc1ccccc1)Oc1ccccc1)OCc1ccccc1 | inactive: 90.6 µM |
| O/N=C/c1ccc(O)c(O)c1 | inactive: > 100 µM |
| O=C1c2cc3c(cc2CC12Cc1cc4c(cc1C2=O)CCC4)CCCC3 (stereo unspecified) | inactive: > 100 µM |
| Cc1nc2c(=O)n(-c3ccccc3)c(=O)n(-c3ccccc3)c2o1 | inactive: > 100 µM |
| CCOCc1nc2c(OC)c(-c3nc4ccc(N5CCN(C)CC5)cc4[nH]3)cc(OC)c2[nH]1 | inactive: 65.9 µM |
| Cc1ccc2c(c1)C(C1Cc3cccc(C)c3C1=O)OC2=O (stereo unspecified) | inactive: > 100 µM |
| CC(C)OC(=O)/C=C/C(=O)O/C=C/[N+](=O)[O-] | inactive: > 100 µM |
| CC(=O)NNc1nc(C)c(C(/C=C/c2ccc(NC(C)=O)cc2)=N/NS(=O)(=O)c2ccc(C)cc2)s1 | inactive: > 100 µM |
| CC(C)(CO)N1C(=O)c2ccccc2C1(O)c1ccc(Cl)cc1 (stereo unspecified) | inactive: > 100 µM |
| O=C1C=CC(=O)C(CNc2ccc(C(=O)OC34CC5CC(CC(C5)C3)C4)cc2)=C1Br | inactive: 15.1 µM |
| CCCCCCN(N)C(=O)CC#N | inactive: > 100 µM |
| CN(C)c1ccc(/C=N/Nc2nc3ccccc3c(=O)n2-c2ccccc2)cc1 | inactive: 92.3 µM |
| CNC(=O)NC(CCCCNC(=O)OCc1ccccc1)C(=O)OCc1ccccc1 (stereo unspecified) | inactive: > 100 µM |
| NCCN1CC2CCC(CC2)C1 | inactive: > 10 µM |
| CO/N=C(/C(=O)N(C(=O)/C(=N/OC)c1csc(NC(c2ccccc2)(c2ccccc2)c2ccccc2)n1)n1cnn(CC(=O)OC(C)(C)C)c1=O)c1csc(NC(c2ccccc2)(c2ccccc2)c2ccccc2)n1 | inactive: > 10 µM |
| O=C1NC(O)CCN1C1CC(O)C(CO)O1 (stereo unspecified) | inactive: > 100 µM |
| O=C1NC2=C(CCCCC/C2=N\O)C12CCCCCC2 | inactive: > 100 µM |

| SMILES | GI50 |
| --- | --- |
| CN(C)C(=S)/N=c1\ss/c(=N/c2ccccc2)n1C | inactive: > 100 µM |
| O=C1/C(=C/Cc2ccco2)N=C(c2ccccc2)N1c1nc2c(Cl)cc(Cl)cc2s1 | inactive: 40.9 µM |
| N=C(N)N/N=C/c1cc(Cl)cc(Cl)c1O | inactive: 76.4 µM |
| Cc1ccc(CCC(=O)C(=O)O)s1 | inactive: > 100 µM |
| CSc1nc(SC)c2c(CO)c(Br)n(Cc3ccccc3)c2n1 | inactive: 20.1 µM |
| O=C(c1ccccc1)c1ccc2[nH]c(-c3c(Cl)c(Cl)c(Cl)c(Cl)c3C(=O)N/N=C\C=C\c3ccccc3)nc2c1 | inactive: 85.3 µM |
| C=CCNC1=C2C[C@@H](C)C[C@@H](OC)[C@H](OC(=O)CCN)[C@H](C)/C=C(\C)[C@@H](OC(N)=O)[C@H](OC)/C=C\C=C(/C)C(=O)NC(=CC1=O)C2=O | inactive: 7.41 µM |
| COc1ccc(C(=O)N(C(=S)OCCOc2ccccc2)c2ccccc2)cc1 | inactive: 53.5 µM |
| C1CSCCSCCCS[C@@H]2CCCCC2SC1 (stereo partly specified) | inactive: > 100 µM |
| C=C1CCC2CC1[C@@H](C(=O)c1c[nH]c3ccccc13)NC2(C)C (stereo partly specified) | inactive: > 37.5 µM |
| CN(C)C(=S)/N=C1\SC(=N\c2ccccc2)/C(=N/c2ccccc2)N1c1ccc([N+](=O)[O-])cc1 | inactive: > 100 µM |
| O=C1/C(=C2/C(=O)N(c3ccccc3)c3ccccc32)Nc2ccccc21 | inactive: 45 µM |
| N#CC1CCCCC1NC1(C#N)CCCCC1 (stereo unspecified) | inactive: > 100 µM |
| CN1CCC(C(=O)NNc2ccccc2)CC1 | inactive: > 52 µM |
| C=C1C(C2(C)C(OC(C)=O)CC(=O)OC(C)(COC(C)=O)C2CC(=O)OC)C(OC=O)C(OC(=O)C(O)C(C)CC)C2(C)C(c3ccoc3)CC(=O)C12O (stereo unspecified) | inactive: 9.53 µM |
| CC(=O)Nc1ccc(/C=C/C(=O)c2sc(-c3nc(C)c(C(=O)/C=C/c4ccc(NC(C)=O)cc4)s3)nc2C)cc1 | inactive: > 100 µM |
| CC1=NN(c2nc(N)nc(C/C(N)=N/O)n2)C(C)(C)C1 | inactive: > 100 µM |
| CC1=C(C(=O)Nc2cc(=O)n(C)c(=O)n2C)C(c2cccc([N+](=O)[O-])c2)C(C(=O)Nc2cc(=O)n(C)c(=O)n2C)=C(C)N1 | inactive: > 100 µM |
| C#CC1NC(=O)C1N(CC)CC (stereo unspecified) | inactive: > 100 µM |
| Cc1cccc(/C=N/NC(=S)Nc2ccccc2)n1 | inactive: 4.16 µM |
| Cc1ccc(S(=O)(=O)N/N=C2/CC[C@H](C(C)(C)C)C[C@@H]2C)cc1 | inactive: 17.7 µM |
| Cc1ccc(C2(N3CCCC3)OC(C)(C)c3cccc4cccc2c34)cc1 (stereo unspecified) | inactive: 17.7 µM |
| O=C(c1ccccc1)c1cc[n+](C2=C([N-]S(=O)(=O)c3ccccc3)C(=O)c3ccccc3C2=O)cc1 | inactive: 15.7 µM |

| SMILES | GI50 |
| --- | --- |
| COc1cccc2c(=O)c3c(O)c4cc(N(C)C)ccc4c(OC(C)=O)c3oc12 | inactive: 26.4 µM |
| COC(=O)c1c(O)ccc2c1c1c(n2CCc2ccccc2)C(=O)c2ccccc2C1 | inactive: 33.2 µM |
| COc1ccc2c(c1O)[C@@]13C=C(O)C(=O)C=C1[C@@H](C2)N(C)CC3 | inactive: 69.3 µM |
| CSc1c(C(=O)Nc2ccc(Cl)cc2)c(N)nn1-c1ccccc1 | inactive: > 100 µM |
| COc1cc(-c2nc(N)c(C#N)c3c2CCS(=O)(=O)c2ccc(C)cc2-3)cc(OC)c1OC | inactive: 61 µM |
| O=C1C(Cl)=C(Cl)C(=O)N1c1ccc(Cl)c(Cl)c1Cl | inactive: > 100 µM |
| Cc1csc(N/C=C2\C(=O)Oc3ccccc3C2=O)n1 | inactive: 28.6 µM |
| CCCCCCc1cc2cc(C(=O)Nc3ccccc3)c(=N)oc2cc1O | inactive: 6.76 µM |
| Cc1ccc2c(c1)C(C(=O)N[C@@H]1C(=O)N3[C@@H]1SC(C)(C)[C@@H]3C(=O)O)OCCC2 (stereo partly specified) | inactive: > 100 µM |
| O/N=N/c1cnccn1 | inactive: > 1250 µM |
| CCN(CC)CCC(=O)O[C@H]1CC[C@H](CC(C)[C@H]2CC(=O)C(C)C=C(C)[C@H](OC(=O)CCN(CC)CC)C(OC)C(=O)[C@@H](C)CC(C)/C=C/C=C/C=C(C)C(OC)CC3CC[C@H](C)[C@](O)(O3)C(=O)C(=O)N3CCCCC3C(=O)O2)CC1OC (stereo partly specified) | active: 0.813 µM |
| C#CC1(O)CCC2[C@@H]3CCc4cc(Oc5nc(F)nc(-c6c7ccccc7cn6C)n5)ccc4C3CC[C@@]21C (stereo partly specified) | inactive: > 100 µM |
| COC1=CC(=O)C2C(C1=O)C(c1ccc(Cl)cc1)[C@@H]2C (stereo partly specified) | inactive: 36.1 µM |
| NC(CCC(=O)Nc1ccc(O)cc1)C(=O)O (stereo unspecified) | inactive: > 100 µM |
| Oc1[nH]c(NCc2ccc(Cl)cc2)nc2ncnc1-2 | inactive: > 100 µM |
| Cc1ccc(-n2c3nc(=O)n(C)c(=O)c-3nc3ccccc32)c(C)c1 | inactive: 10.8 µM |
| Cc1cc(-c2nc3cccc(F)c3s2)ccc1N | inactive: > 73.5 µM |
| CC1(C)COC(c2cccc(C(O)c3ccc(Cl)cc3)c2)=N1 (stereo unspecified) | inactive: 45.9 µM |
| COc1ccc(/C=C/C(=O)/C=C/c2ccc(OC)cc2OC)c(OC)c1 | inactive: 24.2 µM |
| COc1ccc(-c2cc(=O)c3c(O)c(OC)c(O)c(OC)c3o2)cc1OC | inactive: > 100 µM |
| N=C(N)N/N=C/c1c(-c2ccc(Cl)cc2)nc2n1CCS2 | inactive: 14.2 µM |
| CCCN(CCC)C(=O)Cc1c2n(c3ccccc13)Cc1ccccc1-2 | inactive: 68.5 µM |

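Protocol summary: plate cells (96-well), add compound at 5 concentrations, incubate 48 h, interpolate endpoints linearly. The concentration for 50% growth inhibition is given as GI50.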 Active and inactive are the calls of the source. Rule as the data show it: active = GI50 up to about 1.1 µM and inactive = higher.
